Patent publication US4536398A, “Antiviral agents” (Meiji Seika Kaisha Ltd., priority 1982, dated 1985)
In brackets after ≈: the same amount, converted by molar mass. Counter-ions that a name gives are not always drawn. Like-named read-outs stand apart in the source and are kept apart here.

What was measured:
influenza virus A0 /PR-8 [1] = conditions: oral; for Survival: n=10; for M.S.D. (mean survival days): once a day for five days; for Prolong rate: 1% CMC control = 100
influenza virus A0 /PR-8 [2] = conditions: intraperitoneal, once a day for five days
Influenza virus A0 /PR-8 [3] = assay: microbe, parasite or virus in culture; format: cell-based
Influenza virus A0 /PR-8 [4] = assay: microbe, parasite or virus in culture; format: cell-based; remark: listed apart in the source

Row | Compound | Survival (influenza virus A0 /PR-8 [1]; 250 mg/kg) | M.S.D. (mean survival days) (influenza virus A0 /PR-8 [1]; 250 mg/kg) | Prolong rate (influenza virus A0 /PR-8 [1]; 250 mg/kg) | Grade of Lesion % (influenza virus A0 /PR-8 [2]; 50 mg/kg) | Inhibition percent of consolidation (influenza virus A0 /PR-8 [2]; 50 mg/kg) | Grade of Lesion % (influenza virus A0 /PR-8 [2]; 100 mg/kg) | Inhibition percent of consolidation (influenza virus A0 /PR-8 [2]; 100 mg/kg) | proliferation inhibiting activity (in words) (Influenza virus A0 /PR-8 [3]) | virus proliferation inhibition index (Influenza virus A0 /PR-8 [3]; A0 /PR-8, 50% toxicity conc. / 50% proliferation inhibiting conc., 2880 min) | IC50 (Influenza virus A0 /PR-8 [3]; unidentified influenza virus, 48 h, read-out: 50% Virus proliferation inhibiting conc.) | virucidal activity (in words) (Influenza virus A0 /PR-8 [4]) | IC50 (Influenza virus A0 /PR-8 [4]; unidentified influenza virus, 2 h, read-out: 50% Virucidal conc.) | Survival (influenza virus A0 /PR-8 [1]; 62.5 mg/kg) | M.S.D. (mean survival days) (influenza virus A0 /PR-8 [1]; 62.5 mg/kg) | Prolong rate (influenza virus A0 /PR-8 [1]; 62.5 mg/kg) | Survival (influenza virus A0 /PR-8 [1]; 125 mg/kg) | M.S.D. (mean survival days) (influenza virus A0 /PR-8 [1]; 125 mg/kg) | Prolong rate (influenza virus A0 /PR-8 [1]; 125 mg/kg) | Grade of Lesion % (influenza virus A0 /PR-8 [2]; 25 mg/kg) | Inhibition percent of consolidation (influenza virus A0 /PR-8 [2]; 25 mg/kg)
1 | NC12CC3CC(CC(C3)C1)C2 [Amantadine HCl, reference compound] | 60% | ≥ 13.6 days | ≥ 107 | 48.8% | 41.8% | 38.8% | 53.8% | – | – | – | – | – | – | – | – | – | – | – | – | –
2 | COC(=O)C1CC(O)C(O)C(n2cc(CC#N)c3c(OC)cccc32)O1 (stereo not drawn) [SF-2140] | – | – | – | 36.3% | 56.7% | 36.3% | 56.7% | showed a proliferation inhibiting activity | > 158.7 | 6.3 µg/mL (≈ 17.5 µM) | potent virucidal activity | 3.2 µg/mL (≈ 8.88 µM) | 70% | ≥ 13.5 days | ≥ 106 | 60% | ≥ 13.1 days | ≥ 103 | 42.5% | 49.2%
